# Among all 77,000 compounds or so, about 4,600 (6%) were called active. The inconclusive results got no clear call from the source; some entries with a clear call stand among them for comparison.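 How the source made its calls: active means mean inhibition above about 93%, with at least 55% of replicates each passing it (limit read from the data, passing the limit was not always enough); inconclusive means only one of those two conditions holds; inactive means neither condition holds.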
# Assay: T. cruzi intracellular proliferation inhibitors, primary screen, cell-based, beta-gal Tulahuen parasites, NIH3T3 host, luminescence (AID 624255)
# Details: T. cruzi beta-gal in NIH3T3, GalScreen luminescence, 90 h; at 8.34 µM; stronger effect = higher value
row,Compound,inhibition
1,COc1ccc(-c2ccc([C@H]3[C@H](CO)N4CCCCN(C(=O)Cc5ccncc5)C[C@@H]34)cc2)cc1,active: 102%
2,O=C(Cc1ccccn1)N1CCCCN2[C@H](CO)[C@H](c3ccc(-c4ccccc4)cc3)[C@@H]2C1,inconclusive: 95.5%
3,O=C(Cc1cccnc1)N1CCCCN2[C@@H](CO)[C@@H](c3ccc(/C=C/c4ccccc4)cc3)[C@@H]2C1,active: 108%
4,COc1ccc(-c2ccc([C@@H]3[C@@H](CO)N4CCCCN(C(=O)Cc5ccccc5)C[C@H]34)cc2)cc1,inconclusive: 95.3%
5,OC[C@H]1[C@@H]2c3ccccc3NC[C@@H]2N1Cc1cccnc1,inactive: 32.6%
6,CCCNC(=O)N1[C@@H]2c3ccc(-c4ccccc4OC)c(=O)n3C[C@H]1[C@H](CO)[C@H]2C(=O)OC,inactive: 4.99%
7,CCN1[C@@H]2Cn3c(ccc(-c4ccc(OC)cc4)c3=O)[C@H]1[C@@H](C(=O)OC)[C@@H]2CO,inactive: -13.7%
8,N#Cc1cccc(-c2ccc([C@H]3[C@H]4CN(C(=O)Cc5ccccc5)CCCCN4[C@H]3CO)cc2)c1,inconclusive: 101%
9,CN(C)CC#Cc1ccc([C@H]2[C@@H](CO)N3CCCCN(C(=O)Cc4ccccn4)C[C@H]23)cc1,inactive: 61.3%
10,COc1ccc(-c2ccc([C@H]3[C@H]4CN(C(=O)Cc5ccccc5)CCCCN4[C@H]3CO)cc2)cc1,inactive: 73.8%
11,O=C(Cc1ccccc1)N1CCCCN2[C@@H](CO)[C@@H](c3ccc(-c4ccccc4)cc3)[C@@H]2C1,inconclusive: 96%
12,O=C(Cc1ccncc1)N1CCCCN2[C@H](CO)[C@H](c3ccc(C#Cc4ccccc4F)cc3)[C@H]2C1,inconclusive: 96.3%
13,N#Cc1cccc(-c2ccc([C@H]3[C@@H](CO)N4CCCCN(C(=O)Cc5ccncc5)C[C@@H]34)cc2)c1,active: 102%
14,O=C(Cc1ccccn1)N1CCCCN2[C@@H](CO)[C@@H](c3ccc(-c4ccc(F)cc4)cc3)[C@@H]2C1,inconclusive: 102%
15,Cc1ccccc1-c1ccc([C@@H]2[C@H](CO)N3CCCCN(C(=O)Cc4ccccn4)C[C@@H]23)cc1,inconclusive: 96.9%
16,CCCN1[C@@H]2c3ccc(-c4ccccc4)c(=O)n3C[C@H]1[C@H](CO)[C@H]2C(=O)OC,inactive: -1.56%
17,COC(=O)[C@@H]1[C@@H](CO)[C@@H]2Cn3c(ccc(-c4ccccc4)c3=O)[C@H]1N2CC1CCCCC1,inactive: 11.1%
18,COc1cccc(-c2ccc([C@@H]3[C@@H](CO)N4CCCCN(C(=O)Cc5ccncc5)C[C@H]34)cc2)c1,active: 114%
19,COc1ccc(C#Cc2ccc([C@H]3[C@@H](CO)N4CCCCN(C(=O)Cc5cccnc5)C[C@H]34)cc2)cc1,active: 115%
20,CN(C)CC#Cc1ccc([C@@H]2[C@@H](CO)N3CCCCN(C(=O)Cc4ccccn4)C[C@H]23)cc1,active: 114%
21,O=C(Cc1cccnc1)N1CCCCN2[C@H](CO)[C@@H](c3ccc(C#CC4CCCC4)cc3)[C@H]2C1,inconclusive: 95.8%
22,N#Cc1cccc(-c2ccc([C@H]3[C@H](CO)N4CCCCN(C(=O)Cc5cccnc5)C[C@@H]34)cc2)c1,active: 109%
23,COc1ccc(-c2ccc([C@H]3[C@@H](CO)N4CCCCN(C(=O)Cc5ccncc5)C[C@H]34)cc2)cc1,inactive: 88.3%
24,COc1cccc(-c2ccc([C@H]3[C@H]4CN(C(=O)Cc5ccncc5)CCCCN4[C@H]3CO)cc2)c1,inactive: 80.9%
25,COc1cccc(-c2ccc([C@@H]3[C@H](CO)N4CCCCN(C(=O)Cc5ccncc5)C[C@@H]34)cc2)c1,inconclusive: 96%
26,COC(=O)[C@@H]1[C@@H](CO)[C@@H]2Cn3c(ccc(C4=CCCCC4)c3=O)[C@H]1N2CCc1ccccc1,inactive: 46.7%
27,Cc1ccccc1-c1ccc([C@H]2[C@H]3CN(C(=O)Cc4ccccn4)CCCCN3[C@H]2CO)cc1,inconclusive: 103%
28,COc1cccc(-c2ccc([C@H]3[C@@H](CO)N4CCCCN(C(=O)Cc5ccncc5)C[C@H]34)cc2)c1,active: 107%

# From PubChem BioAssay AID624255 (Broad Institute, 2012)
